# Measured values from PubChem BioAssay (NCATS).
# The shares of active, inactive and inconclusive entries below differ from those in the screen. For part of these data: Potencies of inconclusive entries are left out as doubtful fits. The source made the active and inactive calls. Calls come from the whole dose curve; as a rule, active = well fitted curve in the direction sought with a large enough effect; inconclusive = small, poorly fitted or top-dose-only effect, or another doubt; inactive = no such curve, though single readings can be large; an effect the other way counts as inactive or inconclusive.
# Tests used:
# [1] = test system: Nanoluciferase (engineered Oplophorus gracilirostris luciferase); experiment: Primary Nanoluciferase (NLuc) qHTS assay for identification of artifact compounds. (AID 1845222)
# How it was run: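 Luminescence from secreted NLuc (filtered, 1:55-diluted S16 cell medium) read 5 min after Nano-Glo substrate; compounds preincubated 15 min, RT. Hill fits of inhibition normalized to DMSO and no-enzyme.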
# [2] = NS1 protein of Zika virus - qHTS assay to identify small molecule inhibitors in human HEK 293 cells (AID 1347053); note: nearly all actives have a fitted effect of over 55% in size
# How it was run: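 HEK 293 cells pretreated with compound for 1 h, then infected with ZIKV MR766 (MOI 0.5) for 24 h at 37 C. NS1 detected by TR-FRET with two anti-NS1 antibodies; normalized to uninfected (0%) and infected (100%) wells.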
# [3] = Quantitative High-Throughput drug screen in 47 multiple myeloma cell lines against the NCATS MIPE library collection: EJM_DSMZ cell viability assay (AID 1918926; note: nearly all actives have a fitted effect of over 30% in size)
# How it was run: (§1)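 Relative luminescence from CellTiter-Glo served as the viability signal, referenced to DMSO-treated (100%) and cell-free medium (0%) controls. Treatment lasted 48 hours at 37C with 500 cells per well.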
# [4] = Quantitative High-Throughput drug screen in 47 multiple myeloma cell lines against the NCATS MIPE library collection: ARP1_JJKsccF8 cell viability assay (AID 1918928; note: nearly all actives have a fitted effect of over 40% in size)
# How it was run: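 Myeloma cells at 500 per well in 1536-well format treated with MIPE 4.0 library by pin transfer for 48 h at 37C, 5% CO2. Viability from ATP luminescence (CellTiter-Glo), normalized to DMSO (100%) and media-only (0%) wells.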
# [5] = Quantitative High-Throughput drug screen in 47 multiple myeloma cell lines against the NCATS MIPE library collection: KMS27_JCRB cell viability assay (AID 1918970); details: KMS27 myeloma cells, CellTiter-Glo ATP viability, 48 h; viability (% of DMSO): at 45.8 µM (top of the series); note: nearly all actives have a fitted effect of over 30% in size
# How it was run: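 Each line is seeded at 500 cells per well and treated with library compounds for 48 hours under 37 °C, 5% CO2. CellTiter-Glo is then added for 5 min at room temperature before median relative luminescence is recorded.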
# [6] = Quantitative High-Throughput drug screen in 47 multiple myeloma cell lines against the NCATS MIPE library collection: KMS20_JCRB cell viability assay (AID 1918973); details: CellTiter-Glo ATP, 48 h; viability (% of DMSO): at 45.8 µM (top of the series); note: nearly all actives have a fitted effect of over 45% in size
# How it was run: as §1
# [7] = Quantitative High-Throughput drug screen in 47 multiple myeloma cell lines against the NCATS MIPE library collection: KMS26_JCRB cell viability assay (AID 1918975); note: nearly all actives have a fitted effect of over 45% in size
# How it was run: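 Approved and investigational drugs from MIPE 4.0 were added by pin tool to 500 cells per well. After 48 hours at 37C, ATP-based CellTiter-Glo luminescence indicated remaining viability.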
# [8] = Quantitative High-Throughput drug screen in 47 multiple myeloma cell lines against the NCATS MIPE library collection: OCIMY1_PLB cell viability assay (AID 1918979); note: nearly all actives have a fitted effect of over 35% in size
# How it was run: (§2)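 Plated at 500 cells per well, myeloma lines received MIPE 4.0 compounds by pin tool. Following 48 h culture at 37 °C, CellTiter-Glo luminescence gave viability relative to DMSO and media-only controls.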
# [9] = Quantitative High-Throughput drug screen in 47 multiple myeloma cell lines against the NCATS MIPE library collection: LP1_DSMZ cell viability assay (AID 1918982); note: nearly all actives have a fitted effect of over 35% in size
# How it was run: as §2
# [10] = Quantitative High-Throughput drug screen in 47 multiple myeloma cell lines against the NCATS MIPE library collection: MMM1_PLB cell viability assay (AID 1918976); note: nearly all actives have a fitted effect of over 35% in size
# How it was run: as §2
# [11] = qHTS of pediatric cancer cell lines to identify multiple opportunities for drug repurposing: Primary screen for RD cells (AID 1347104); details: RD rhabdomyosarcoma viability, CellTiter-Glo luminescence, 48 h; activity change, negative = cytotoxic: at 46 µM (top of the series); note: nearly all actives have a fitted effect of over 55% in size
# How it was run: (§3)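 Phenotypic viability qHTS, 48 h compound exposure, CellTiter-Glo luminescence read-out; multi-concentration dosing so that potency and efficacy derive directly from the primary screen's curves.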
# [12] = qHTS of pediatric cancer cell lines to identify multiple opportunities for drug repurposing: Primary screen for MG 63 (6-TG R) cells (AID 1347105); details: MG 63 (6-TG R) viability, CellTiter-Glo, 48 h; activity change, negative = cytotoxic: at 46 µM (top of the series); note: nearly all actives have a fitted effect of over 50% in size
# How it was run: as §3
# [13] = qHTS of pediatric cancer cell lines to identify multiple opportunities for drug repurposing: Primary screen for control Hh wild type fibroblast cells (AID 1347106); note: nearly all actives have a fitted effect of over 55% in size;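 for activity change, negative = cytotoxic: a drop in luminescence marks cytotoxicity and a rise apparent proliferation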
# How it was run: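 Viability after 48 h compound treatment at 37C, 500-1,000 cells/well, read as ATP luminescence with CellTiter-Glo. Primary screens used 11-point (MIPE, 0.78 nM-46 µM) or 8-point (NPC, 0.59 nM-46 µM) final concentrations; follow-up screens used 11-point dilutions.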
# [14] = qHTS of pediatric cancer cell lines to identify multiple opportunities for drug repurposing: Confirmatory screen for A673 cells (AID 1347110);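 note: cells exposed to compound for 48 h before the viability read; nearly all actives have a fitted effect of over 65% in size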
# How it was run: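 Forty-eight-hour viability assay. Follow-up compounds ran at 11-point dilutions; positive control bortezomib at 2.3 uM final, neutral control DMSO.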
# [15] = qHTS of pediatric cancer cell lines to identify multiple opportunities for drug repurposing: Confirmatory screen for LAN-5 cells (AID 1347113); note: nearly all actives have a fitted effect of over 65% in size
# How it was run: (§4)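 Cells (500-1,000/well) rested 5 h, then received compounds for 48 h; metabolically active cells were measured by CellTiter-Glo luminescence. Final concentrations spanned up to 46 µM (MIPE, 11-point) or 0.59 nM-46 µM (NPC, 8-point) in primary screens, 11-point in follow-ups.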
# [16] = qHTS of pediatric cancer cell lines to identify multiple opportunities for drug repurposing: Confirmatory screen for DAOY cells (AID 1347114); note: nearly all actives have a fitted effect of over 65% in size
# How it was run: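 Viability measured as metabolically active cells via CellTiter-Glo luminescence following 48 hours of compound exposure, 11-point dilutions in confirmatory testing. 500-1,000 cells/well plated 5 hours before dosing; controls were DMSO and 2.3 µM bortezomib.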
# [17] = qHTS of pediatric cancer cell lines to identify multiple opportunities for drug repurposing: Confirmatory screen for MG 63 (6-TG R) cells (AID 1347119); note: nearly all actives have a fitted effect of over 55% in size
# How it was run: as §4
# [18] = qHTS of pediatric cancer cell lines to identify multiple opportunities for drug repurposing: Confirmatory screen for RD cells (AID 1347124); details: RD rhabdomyosarcoma cell viability; activity change, negative = cytotoxic: at 45.9 µM (top of the series);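 note: cells exposed to compound for 48 h before viability readout; nearly all actives have a fitted effect of over 65% in size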
# How it was run: as §4
# MCC-26 = experiment: qHTS assay to identify novel small-molecules to repurpose for Merkel cell carcinoma treatment (AID 1296009); details: MCC and control cell lines, CellTiter-Glo viability, 72 h; series mostly up to 46 µM; note: nearly all actives have a fitted effect of over 60% in size
# How it was run: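 After compound transfer in DMSO, plates were kept 72 hr at 37 degree celsius. Luminescent ATP signal from CellTiter-Glo served as viability measure, normalized against DMSO and no-cell controls.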
# Potency is the fitted concentration of half-maximal effect; tags give direction and shape of the fitted curve.
structure (smiles),measurement,setting,value
CNC(=S)NS(=O)(=O)c1cc(CCNC(=O)c2cc(Cl)ccc2OC)ccc1OC,Potency,[1],"inconclusive [inhibitor, partial curve, poor fit]"
C/C=C/c1ccc(O[C@@H]2O[C@H](CO)[C@@H](O)[C@H](O)[C@H]2O)c(OC)c1,Potency,[1],"inconclusive [inhibitor, single point]"
Cn1sc(=O)n(Cc2ccccc2)c1=O,Potency,[1],"inconclusive [inhibitor, partial curve]"
C[C@]12CC[C@@H]3c4ccc(O)cc4CC[C@H]3[C@H]1CC[C@H]2O,Potency,[2],inactive
same,Potency,[3],"inconclusive [cytotoxic, partial curve]"
same,Potency,[4],"inconclusive [cytotoxic, single point]"
same,Potency,[5],"inconclusive [cytotoxic, full curve]"
same,Potency,[6],active: 18.7 µM
same,Potency,[7],active: 5.9 µM
same,Potency,[8],"inconclusive [cytotoxic, single point]"
same,Potency,[9],"inconclusive [cytotoxic, partial curve]"
CC(C)(C)NC(=O)[C@@H](c1cccnc1)N(C(=O)c1ccco1)c1ccc(C(C)(C)C)cc1,Potency,[1],"inconclusive [inhibitor, single point]"
O=S(=O)(c1cccc2cnccc12)N1CCCNCC1,Potency,[3],"inconclusive [cytotoxic, single point]"
same,Potency,[4],"inconclusive [cytotoxic, full curve, poor fit]"
same,Potency,[5],"inconclusive [cytotoxic, partial curve, poor fit]"
same,Potency,[6],inactive
same,Potency,[7],"inconclusive [rising, full curve, poor fit]"
same,Potency,[10],"inconclusive [rising, full curve, poor fit]"
same,Potency,[9],inactive
COc1ccc(C[C@@H](C)[C@@H](C)Cc2ccc(OC)c(OC)c2)cc1OC,Potency,[2],active: 0.833 µM
same,Potency,[11],"inconclusive [cytotoxic, full curve]"
same,Potency,[12],"inconclusive [cytotoxic, full curve]"
same,Potency,[13],"inconclusive [cytotoxic, full curve, poor fit]"
same,Potency,[14],"inconclusive [cytotoxic, partial curve]"
same,Potency,[15],inactive
same,Potency,[16],active: 11.7 µM
same,Potency,[17],active: 9.27 µM
same,Potency,[18],"inconclusive [cytotoxic, full curve, poor fit]"
same,Potency,[3],"inconclusive [cytotoxic, full curve]"
same,Potency,[7],active: 0.59 µM
same,Potency,[10],active: 5.9 µM
same,Potency,[8],"inconclusive [cytotoxic, full curve, poor fit]"
same,Potency,[9],"inconclusive [cytotoxic, full curve]"
same,Potency,MCC-26,"inconclusive [inhibitor, full curve]"
CCCNC(C)(C)COC(=O)c1ccccc1,Potency,[2],inactive
same,Potency,[13],inactive
O=C(Nc1cccc(Nc2ncc(Br)c(NCCc3cnc[nH]3)n2)c1)N1CCCC1,Potency,[13],"inconclusive [cytotoxic, single point]"
same,Potency,[4],active: 18.7 µM
same,Potency,[5],inactive
same,Potency,[6],active: 5.9 µM
same,Potency,[10],active: 18.7 µM
same,Potency,[8],"inconclusive [cytotoxic, partial curve]"
same,Potency,[9],active: 20.9 µM
same,Potency,MCC-26,active: 11.8 µM
OCCNC1CCCc2c1[nH]c1ccc(-c3ccccc3)cc21 (stereo not given),Potency,[11],active: 33.2 µM
same,Potency,[3],"inconclusive [cytotoxic, single point]"
same,Potency,[4],"inconclusive [cytotoxic, single point]"
same,Potency,[5],active: 23.5 µM
same,Potency,[10],active: 20.9 µM
same,Potency,[9],active: 23.5 µM
NC(=O)Nc1sc(-c2ccc(F)cc2)cc1C(N)=O,Potency,[12],active: 0.59 µM
same,Potency,[15],"inconclusive [cytotoxic, partial curve]"
same,Potency,[16],inactive
same,Potency,[18],"inconclusive [cytotoxic, partial curve, poor fit]"
same,Potency,[4],active: 2.96 µM
same,Potency,[5],active: 0.166 µM
same,Potency,[7],active: 2.96 µM
same,Potency,[8],"inconclusive [cytotoxic, partial curve, poor fit]"
same,Potency,[9],"inconclusive [cytotoxic, full curve]"
same,Potency,MCC-26,"inconclusive [inhibitor, full curve]"
